Data as given in the BET-seq Pho4 binding data (Le et al. 2018).
The list shows a part of the results. The energies were worked out here from pooled read counts, against the library average; single values are noisy.

target: T1, Pho4 (S. cerevisiae) (UniProt P07270); test: relative binding free energy (BET-seq); higher = weaker binding; settings: reference: library average
T1 sequence: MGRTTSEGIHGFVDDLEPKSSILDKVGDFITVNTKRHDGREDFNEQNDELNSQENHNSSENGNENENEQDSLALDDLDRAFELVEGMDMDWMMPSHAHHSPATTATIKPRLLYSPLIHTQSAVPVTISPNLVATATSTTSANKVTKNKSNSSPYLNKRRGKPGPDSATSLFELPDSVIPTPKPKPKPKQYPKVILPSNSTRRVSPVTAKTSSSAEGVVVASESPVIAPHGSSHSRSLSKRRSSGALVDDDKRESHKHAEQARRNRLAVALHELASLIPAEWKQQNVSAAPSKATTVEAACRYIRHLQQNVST

| Sequence | relative binding free energy [kcal/mol] |
| --- | --- |
| GTGGGCACGTGGAAGT | 0.11 |
| TATGTCACGTGTGCAA | -0.03 |
| GGTCGCACGTGTGGTA | 0.16 |
| ATGCTCACGTGTGGTA | 0.23 |
| GCATTCACGTGGTGGC | 0.25 |
| TGAATCACGTGGCCGG | 0.16 |
| GAGGTCACGTGGTACG | 0.03 |
| TGTAACACGTGGTTAT | -0.07 |
| CGTTTCACGTGAAAGG | 0.36 |
| CAGGTCACGTGTGATT | -0.01 |
| CAGGGCACGTGCGTTT | -0.2 |
| GCTTTCACGTGTGCGG | 0.22 |
| CGGTCCACGTGGGTTG | -0.18 |
| TCTATCACGTGTAGTG | 0.17 |
| TGCTTCACGTGAGAGG | 0.5 |
| AGATTCACGTGTCATG | 0.09 |
| AGCGTCACGTGTTGAA | 0.17 |
| TATTACACGTGTATAT | -0.06 |
| GAGCACACGTGGGTGG | -0.05 |
| TGTTGCACGTGTACTT | 0 |
| AGGGTCACGTGGCCTG | -0.08 |
| GTGCTCACGTGTGGGC | 0.38 |
| TAATGCACGTGATGGC | 0.08 |
| TATTGCACGTGTGAAT | 0.01 |
| TCGTTCACGTGGGCTG | 0.13 |

| Sequence | relative binding free energy [kcal/mol] |
| --- | --- |
| TGAGTCACGTGGGGAT | -0.07 |
| AGGTACACGTGTGCCG | 0.15 |
| TGAAACACGTGTGGGA | 0.13 |
| TGGCACACGTGTGTGT | 0.15 |
| TTGTGCACGTGTGGAT | 0.02 |
| CGGAGCACGTGGAAGG | -0.12 |
| TAAAGCACGTGAGGAT | 0.26 |
| TATTGCACGTGGGGTG | -0.07 |
| TGTAGCACGTGGTTAG | -0.07 |
| ATAGGCACGTGCGAGG | -0.21 |
| AGGGTCACGTGGTACG | 0.1 |
| AGTGTCACGTGTGTGG | 0.1 |
| GAGTGCACGTGTTGCT | -0.03 |
| ATTATCACGTGACGGT | 0.31 |
| ATTTTCACGTGCTGGA | 0.39 |
| TTGGCCACGTGGTGAA | -0.14 |
| AAGTGCACGTGCAGGG | -0.2 |
| GTGGCCACGTGGTGTA | -0.07 |
| ACTGGCACGTGTGGCG | 0.06 |
| TGACGCACGTGGGGGT | -0.19 |
| TGTCACACGTGATGTG | 0.17 |
| TCTTGCACGTGTTCGG | -0.04 |
| CTAGGCACGTGTGGGT | -0.12 |
| GCGTGCACGTGAGTGG | 0.24 |
| GAGGTCACGTGTGTGG | 0.15 |

| Sequence | relative binding free energy [kcal/mol] |
| --- | --- |
| AGGTGCACGTGAATAG | 0.13 |
| CGGAGCACGTGTTGGA | 0.04 |
| GTTGCCACGTGCGTAG | 0.02 |
| TAACGCACGTGGGTAT | -0.13 |
| CCGTGCACGTGAAGGG | 0.15 |
| ATCTGCACGTGGTTGA | -0.15 |
| TCTTTCACGTGTGCGT | 0.22 |
| TCATACACGTGGGGAG | 0.03 |
| AGTGGCACGTGAGTCG | -0.04 |
| TGGCGCACGTGTGTCT | -0.11 |
| GTAGTCACGTGCTGGC | 0.07 |
| GGGACCACGTGGGTGA | -0.17 |
| GTGCACACGTGTGGTG | 0.11 |
| TGGTGCACGTGCCAGT | -0.12 |
| ATGGGCACGTGCGAGC | -0.13 |
| GTCGGCACGTGGTGCA | -0.12 |
| CAGGGCACGTGCTTGG | -0.17 |
| AGTAGCACGTGTCAGG | -0.11 |
| AGCTTCACGTGCGGTT | 0.08 |
| GGGCGCACGTGTTAGG | -0.15 |
| TATTACACGTGCATTT | 0.2 |
| TGGATCACGTGGATGT | 0.18 |
| CAGGGCACGTGAGGGG | 0.16 |
| GTGAACACGTGTTGTG | 0.04 |
| GGGGGCACGTGGGGGT | -0.04 |

| Sequence | relative binding free energy [kcal/mol] |
| --- | --- |
| TGTTTCACGTGATACA | 0.16 |
| CGTTTCACGTGGGCGA | 0.12 |
| CTCGTCACGTGAGTGG | 0.19 |
| GGTTTCACGTGATGGA | 0.36 |
| TTAAGCACGTGGTCGG | -0.14 |
| TTAATCACGTGTTTGA | 0.11 |
| GTGTGCACGTGTGTAC | -0.01 |
| GAAGACACGTGTGTGG | 0.13 |
| GTGAACACGTGGTCTT | 0.09 |
| CTTTTCACGTGGGGTC | 0.19 |
| GGCGGCACGTGTAATG | 0.02 |
| GTGTGCACGTGAGAAA | 0.25 |
| GTATACACGTGCGGGT | -0.1 |
| GTGAGCACGTGTGAGA | -0.11 |
| TTGTACACGTGTCGAT | 0.08 |
| TGTTGCACGTGTAGTC | 0.13 |
| TGATTCACGTGGGGAA | 0.08 |
| AATGGCACGTGTCGGC | 0.09 |
| TGTGTCACGTGGAGAT | 0.1 |
| GAGTGCACGTGAAGGG | 0.22 |
| ATATGCACGTGGGAGC | -0.08 |
| GACGGCACGTGGGAAT | 0.05 |
| CTGGTCACGTGCGGAT | 0.14 |
| CGGGACACGTGAGATG | 0.42 |
| AACGTCACGTGATTGG | 0.22 |

| Sequence | relative binding free energy [kcal/mol] |
| --- | --- |
| TTCAGCACGTGTGGTG | -0.03 |
| TTTGTCACGTGAGCCT | 0.19 |
| AATCTCACGTGGTAGG | 0.13 |
| CTTTACACGTGAGTAG | 0.33 |
| TTCATCACGTGTTAGG | 0.26 |
| GAGTGCACGTGTCGTT | -0.03 |
| TAATACACGTGGTGTC | -0.05 |
| AGGGTCACGTGGGGTG | -0.09 |
| CTATGCACGTGGGTAA | -0.12 |
| GGTATCACGTGGAAGA | 0.33 |
| GAAATCACGTGATTTG | 0.29 |
| GTTTCCACGTGATGTT | 0.51 |
| AGTTGCACGTGGGTAT | -0.05 |
| TTGTACACGTGTATCT | -0.02 |
| TTGAGCACGTGCTATG | -0.21 |
| GGCGTCACGTGCGGTT | 0.17 |
| GGGTACACGTGGATGA | 0.13 |
| CTTTTCACGTGATAGT | 0.1 |
| GGGACCACGTGTTCGG | 0.02 |
| GTAGTCACGTGCGCTT | 0.09 |
| TTTTGCACGTGTAACG | 0.14 |
| TGTAGCACGTGGGATT | -0.09 |
| TTTGGCACGTGCACGT | -0.2 |
| GCGCTCACGTGTAGGG | 0.23 |
| ATAGTCACGTGGTTCG | 0.02 |

| Sequence | relative binding free energy [kcal/mol] |
| --- | --- |
| TAGTACACGTGCGTTT | 0.11 |
| AATATCACGTGTGCGG | 0.19 |
| GTGGTCACGTGTCGTC | 0.1 |
| TGGAGCACGTGGTGAG | -0.06 |
| GTAAGCACGTGATTAG | 0.11 |
| AAAGGCACGTGTAGGG | -0.13 |
| AGTATCACGTGTAAAT | 0.13 |
| GTGGCCACGTGTGATT | 0.04 |
| GGTCGCACGTGGTCGG | -0.05 |
| TCTGGCACGTGGGCAT | -0.13 |
| AGGGGCACGTGCTATT | -0.16 |
| AAAGACACGTGGAGGG | -0.04 |
| TCGGGCACGTGCGGGC | -0.14 |
| TTAAACACGTGAGAGG | 0.24 |
| GTTGGCACGTGGATCG | 0.13 |
| ATGTGCACGTGACGGT | 0.12 |
| TATAGCACGTGTTCTT | -0.05 |
| TTAAGCACGTGCTTTG | -0.16 |
| GTGGACACGTGTGGGT | 0.18 |
| TGGTGCACGTGTCCTT | 0.05 |
| CGGGTCACGTGGTTAG | 0.14 |
